# Source: the supplement of paper PMC7826260
# The list shows a part of the results. Viral Rep nickase domains cut single-stranded DNA in vitro for 1 h at 37 °C with 3 µM enzyme; only the middle of the 90-letter strands is printed. Values are log2 of uncut reads against the no-enzyme pool; more negative means more cut, near 0 not cut, and no call is made. Shares of all reads are compared; uncut strands gain when others are lost, and binding without cutting may add a little.
# Tested on: T1, Rep nickase domain of Muscovy duck circovirus
# T1 sequence (residues 1-111 of Rep, tag left off): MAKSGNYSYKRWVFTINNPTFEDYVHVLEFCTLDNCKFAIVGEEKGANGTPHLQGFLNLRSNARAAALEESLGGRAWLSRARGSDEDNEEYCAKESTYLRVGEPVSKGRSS
# Test: uncleaved DNA left, log2 of reads against the no-enzyme library (log2 ratio); higher = less cleavage (more negative = more Rep cleavage of the k-mer); sequences stand for … in CTCGTCCG…ACCGGAGA
# Procedure: (§1)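 A pool of 90-nt single-stranded DNAs with seven random bases just before the constant AC of the nick site (name = the seven bases) was cut by 3 µM recombinant His6-SUMO-tagged Rep nickase domain (300 nM DNA, 50 mM HEPES pH 8.0, 50 mM NaCl, 1 mM MnCl2, 1 h, 37 °C, three replicates). Uncut DNA was amplified and sequenced.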
row,Sequence,uncleaved DNA left (log2)
1,TAGATTA,0.0148
2,GGTAGGA,0.15
3,TACGACT,0.0079
4,CTACTCG,0.0402
5,AAGGAGG,0.111
6,AGAGGCT,0.0581
7,TTTGCGA,0.0214
8,ATGGCGC,-0.0273
9,ATGCGGG,0.0812
10,CGGAGGT,-0.0156
11,GCGCCCT,-0.145
12,TCTGGTC,0.244
13,ACGCCGC,-0.103
14,TAGTGTG,0.118
15,GGGCCCT,0.126
16,TGTAGCA,-0.0215
17,GTTAGGA,0.296
18,TTACCCG,-0.194
19,GTAGTCA,0.0831
20,GCCATCC,0.000336

row,Sequence,uncleaved DNA left (log2)
1,TTCGGAT,-0.0709
2,CGGCCGG,0.182
3,GTGGGTG,0.106
4,GCTGGAC,0.11
5,TTGAAAT,0.184
6,AGTTCAC,-0.00747
7,TGGCGAT,0.18
8,TGAACTG,0.0563
9,TCACTGG,-0.00135
10,AGTTGGG,0.166
11,ATCCAGA,0.032
12,CACACGC,-0.102
13,CAGCTTA,0.203
14,ACTGGCT,0.0858
15,ACCGGCC,-0.103
16,GAGCGCG,-0.0906
17,GTCTGGA,0.118
18,CGTCAAA,0.0636
19,ATCATGC,-0.000486
20,GGCATCG,0.0486

# Tested on: T2, Rep nickase domain of banana bunchy top virus
# T2 sequence (residues 1-94 of Rep, tag left off): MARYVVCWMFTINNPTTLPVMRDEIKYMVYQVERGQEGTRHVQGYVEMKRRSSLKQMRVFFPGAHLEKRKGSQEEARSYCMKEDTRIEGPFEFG
# Test: as above
# Procedure: as §1
row,Sequence,uncleaved DNA left (log2)
1,TAGATTA,-0.0603
2,GGTAGGA,0.184
3,TACGACT,-0.163
4,CTACTCG,-0.0149
5,AAGGAGG,0.128
6,AGAGGCT,0.0143
7,TTTGCGA,0.0195
8,ATGGCGC,-0.152
9,ATGCGGG,0.115
10,CGGAGGT,0.00158
11,GCGCCCT,-0.0643
12,TCTGGTC,0.138
13,ACGCCGC,-0.0354
14,TAGTGTG,0.0998
15,GGGCCCT,0.117
16,TGTAGCA,0.0411
17,GTTAGGA,0.157
18,TTACCCG,-0.0889
19,GTAGTCA,0.0255
20,GCCATCC,0.0981
